Hit rate of the full screen: of about 310,000 compounds, about 2,200 (0.71%) showed an effect of 50% or more. Effects have a minus sign here. The list shows a part of the results.
The compounds below were run against human ether-à-go-go-related gene (hERG) potassium channel (human, UniProt Q12809) (assay: primary screen, population patch clamp on CHO cells stably expressing hERG).
Sequence of human ether-à-go-go-related gene (hERG) potassium channel (Q12809 whole entry, looked up): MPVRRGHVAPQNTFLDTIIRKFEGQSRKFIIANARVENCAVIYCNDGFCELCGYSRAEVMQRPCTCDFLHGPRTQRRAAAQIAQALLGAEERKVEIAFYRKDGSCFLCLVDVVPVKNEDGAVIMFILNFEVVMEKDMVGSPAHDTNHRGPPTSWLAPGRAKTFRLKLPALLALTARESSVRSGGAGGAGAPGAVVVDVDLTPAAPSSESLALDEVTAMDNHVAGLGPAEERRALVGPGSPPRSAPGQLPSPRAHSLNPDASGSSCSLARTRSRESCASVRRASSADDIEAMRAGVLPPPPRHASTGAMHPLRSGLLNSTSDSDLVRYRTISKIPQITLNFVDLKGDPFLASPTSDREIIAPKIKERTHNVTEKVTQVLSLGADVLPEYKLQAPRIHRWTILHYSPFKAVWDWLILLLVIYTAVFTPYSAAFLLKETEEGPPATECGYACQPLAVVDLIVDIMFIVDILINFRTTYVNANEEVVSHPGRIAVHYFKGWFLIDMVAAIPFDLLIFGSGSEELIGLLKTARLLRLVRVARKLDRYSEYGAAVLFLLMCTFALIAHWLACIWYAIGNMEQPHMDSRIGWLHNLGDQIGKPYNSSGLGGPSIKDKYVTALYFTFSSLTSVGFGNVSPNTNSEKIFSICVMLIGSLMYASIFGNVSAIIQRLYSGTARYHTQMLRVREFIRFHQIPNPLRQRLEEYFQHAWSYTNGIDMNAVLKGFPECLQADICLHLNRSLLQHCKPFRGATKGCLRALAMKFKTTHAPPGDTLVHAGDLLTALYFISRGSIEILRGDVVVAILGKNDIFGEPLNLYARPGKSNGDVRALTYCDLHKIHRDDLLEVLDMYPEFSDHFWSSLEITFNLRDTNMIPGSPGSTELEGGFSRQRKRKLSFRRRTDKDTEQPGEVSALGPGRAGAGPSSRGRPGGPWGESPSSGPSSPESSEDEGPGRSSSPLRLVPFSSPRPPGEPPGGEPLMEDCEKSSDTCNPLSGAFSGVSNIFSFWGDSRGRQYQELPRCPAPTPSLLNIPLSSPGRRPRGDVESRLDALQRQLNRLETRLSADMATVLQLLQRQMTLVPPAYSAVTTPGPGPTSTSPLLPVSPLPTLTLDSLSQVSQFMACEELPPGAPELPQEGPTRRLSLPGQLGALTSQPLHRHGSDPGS

SMILES	hERG current change (%, negative = inhibition) at 1uM [%]
CCN=C1S/C(=C\c2ccc(Sc3ccc(Cl)cc3)o2)C(=O)N1CC	-3.54
COc1ccc(C2C=C(c3ccccc3)Nc3nnnn32)cc1 (centres unmarked)	13.2
O=C(Nc1nonc1NC(=O)c1cccs1)c1cccs1	6.81
Cn1c(=O)[nH]c(=O)c2c1nc(SCC(O)CCl)n2Cc1ccccc1 (centres unmarked)	1.74
CC(=O)Nc1nc(C)c(Cc2ccccc2)c(=O)[nH]1	2.35
Clc1ccc(SCNc2ccccc2Cl)cc1	15.7
CCOC(=O)C1CCN(S(=O)(=O)c2ccc3c(c2)N(C(C)=O)CC(C)S3)CC1 (centres unmarked)	-15.6
CN(C(=O)COC(=O)/C=C/c1ccc(F)cc1)c1c(N)n(Cc2ccccc2)c(=O)[nH]c1=O	5.04
O=C(CCc1ccccc1)NCc1ccc(F)cc1	6.51
O=C(CCCOc1ccccc1)N1CCN(C(=O)c2ccco2)CC1	-5.16
Cc1ccc2[nH]c(=O)c(CN(CCCN(C)C)C(=O)Nc3cccc(Cl)c3)cc2c1	-26.3
COc1cccc(N2CCN(C(=O)Cn3c(=O)oc4ccccc43)CC2)c1	4.28
Cc1ccc(-c2[nH]c3cc(C(N)=O)ccc3c(=O)c2O)cc1	16.6
Oc1ccccc1-c1cc(-c2ccc(Cl)cc2)n[nH]1	15
COc1cc(C2C3=C(CC(C)(C)CC3=O)N(C)C(=O)N2C)cc(OC)c1OC (centres unmarked)	11.8
CCS(=O)(=O)N1CCN(c2ccc([N+](=O)[O-])c(NCC3CCCO3)c2)CC1 (centres unmarked)	4.52
CCN(CC)C(=O)C(Oc1ccc(S(=O)(=O)N2CCCC2)cc1[N+](=O)[O-])c1ccccc1 (centres unmarked)	10.9
COc1cccc(C(C(=O)NC2CCCCC2)N(Cc2ccco2)C(=O)c2ccccn2)c1 (centres unmarked)	9.22
COc1ccccc1C(=O)O/N=C(\N)c1ccc(Cl)cc1	-5.06
CCOC(=O)c1sc(=S)n(C)c1C	11.3
COc1ccc(CCN(C)C(=O)C23CC4CC(CC(Cl)(C4)C2)C3)cc1OC	6.42
COc1ccc(CC(=O)NNS(=O)(=O)c2ccc(F)cc2)cc1OC	9.99
S=c1[nH]ncn1-c1ccccn1	5.37

SMILES	hERG current change (%, negative = inhibition) at 1uM [%]
Cc1ccc(C(=O)NCCN2CCOCC2)cc1	16.3
Cc1ccc(S(=O)(=O)N2CCN(Cc3cc(=O)n4ccccc4n3)CC2)cc1C	0.238
CCOC(=O)c1[nH]c2ccccc2c1NC(=O)CN1CCCCC1	-5.66
COc1ccccc1CNC(=O)COC(=O)Cc1ccc(F)cc1	8.2
Cc1cccc(N2C(=O)CC(N3CCN(C(=O)c4ccccc4)CC3)C2=O)c1 (centres unmarked)	11.1
O=C(NCCN1CCOCC1)c1cn(CCc2ccccc2)nn1	1.7
Cc1ccc(-c2noc(CCCC(=O)Nc3cccnc3)n2)cc1	-3.19
CS(=O)(=O)Nc1ccc(C2=NN(S(C)(=O)=O)C(c3cccs3)C2)cc1 (centres unmarked)	-16.1
CN(c1ccc(C(=O)Nc2ccccc2Sc2ccccc2)cc1)S(C)(=O)=O	-5.55
CCOC(=S)SCC(=O)N1CCc2ccccc2C1C1C(=O)CCCC1=O (centres unmarked)	15.6
COc1ccc(OC)c(C(O)C2CCCCN2)c1.Cl (centres unmarked)	14.3
O=C(NCC1CC1)c1ccccc1Cl	13.5
Cc1cc(C)cc(OCC(=O)Nc2ccncc2)c1	13.6
Cc1ccc(S(=O)(=O)NCCC(=O)N2CCCC(C)C2)cc1 (centres unmarked)	-29.5
CC(=O)NN1C(=O)c2ccccc2NC1c1ccco1 (centres unmarked)	7.36
O=C(Nc1ccc(SC(F)F)cc1)c1cccc2nc3ccccc3nc12	9.75
Cc1ccc(NC(=O)C2CC3CCC2C3)c(Br)c1 (centres unmarked)	13.4
CCOC(=O)CCn1nc(-c2ccc(C)cc2)c2ccccc2c1=O	6.09
Cc1cccc(NC(=O)CSc2nc3c(oc4ccccc43)c(=O)n2-c2ccccc2)c1	5.53
CS(=O)(=O)N(Cc1ccccc1)c1ccccc1C(=O)N1CCN(c2ccccc2)CC1	11.7
Cc1ccc2nc(-c3ccncc3)cc(C(=O)NCc3ccccc3F)c2c1	14.1
COC(=O)CSC(C)C(=O)Nc1nnc(C(C)C)s1 (centres unmarked)	6.29
N/C(=N\c1nc(CSc2ccc(Cl)cc2)cc(=O)[nH]1)Nc1cccc2ccccc12	7.94

SMILES	hERG current change (%, negative = inhibition) at 1uM [%]
Cc1ccc2c(c1)/C(=C/c1ccc(F)cc1)C(=O)N2	14
O=C(NCCNC(=O)c1ccc(-c2ccc(Cl)c(Cl)c2)o1)c1cnccn1	-54.4
CCCc1nnc(NC(=O)CCC(=O)N2CCN(CCOc3ccc(C)cc3)CC2)s1	-5.24
O=C(Cc1ccccc1)NCCS(=O)(=O)N1CCN(c2ccccc2)CC1	11.5
COc1cc2c(c(O)c1OC)-c1c(cc(OC)c(OC)c1OC)C[C@@H](C)[C@@H](C)C2	-41.5
CCCc1c(O)c2ccccc2[nH]c1=O	19.4
CC(C)(C)CN1CCC(Oc2cccc(C(=O)N3CCC[C@H]3CO)c2)CC1	27.5
Cc1nc2ccccn2c1C(=O)NN=C1C2CC3CC(C2)CC1C3	-1.59
O=C(c1ccccc1)N1CCn2c1nc1ccccc12	9.44
O=S(=O)(Nc1cccnc1)c1cc(Cl)ccc1Cl	15.9
COc1ccc(/C=N/N=C2/C(=O)Nc3ccccc32)cc1O	12.2
CCS(=O)(=O)Nc1cccc(C(=O)CC2(O)C(=O)Nc3ccccc32)c1 (centres unmarked)	11.9
Cc1ccc(C)n1-c1ccc(C(=O)Nc2ccccc2)cc1	10.7
CN(C)C(=O)Oc1ccc(OCc2cccc[n+]2C)cc1.Cc1ccc(S(=O)(=O)[O-])cc1	4.86
N#CCCN1CCN(S(=O)(=O)c2ccc(S(=O)(=O)N3CCCC3)cc2)CC1	11.4
O=C(Nc1ccc(F)cc1)c1oc2ccccc2c1NC(=O)C1CCCC1	-2.95
CCOC(=O)C1(CCSC)NC(c2ccco2)C2C(=O)N(CC)C(=O)C21 (centres unmarked)	16.1
Cc1onc(-c2ccccc2)c1C(=O)Nc1ccc(S(=O)(=O)N2CCCCC2)cc1	12.6
COc1ccc(N2CCN(C(=O)Nc3ccccc3Cl)CC2)cc1	12
CO/N=C/c1ccc(Sc2ccccc2)c([N+](=O)[O-])c1	5.28
O=C(NCc1ccncc1)Nc1ccc(Cl)cc1Cl	12.2
CNc1oc(-c2ccccc2)nc1C#N	16.5
C/C(=N\Nc1nc(N2CCOCC2)nc(N2CCOCC2)n1)c1ccc([N+](=O)[O-])cc1	12.7

SMILES	hERG current change (%, negative = inhibition) at 1uM [%]
Cc1n[nH]c(=O)c2c(NC(=O)CSc3nc4ccccc4c(=O)n3-c3ccc(OC(F)F)cc3)oc(C)c12	-11.4
CCOC(=O)c1cnc2cc(F)c(F)cc2c1N1CCN(C)CC1	12.4
CCOC(=O)Cc1csc(NC(=O)Cc2ccc([N+](=O)[O-])cc2)n1	-12.2
CCOCCCN1CC(C(=O)NCCc2ccccc2)CC1=O (centres unmarked)	2.02
CC1CCN(CC(=O)NC2CCCCC2)CC1.Cl	18.8
Cc1cccc(-n2ncc3c(NCCc4ccc(S(N)(=O)=O)cc4)ncnc32)c1	6.43
Cc1ccc(S(=O)(=O)Oc2ccccc2/C=N/Nc2ccc(C(=O)O)cc2)cc1	8.88
Cc1ccccc1N1C(=O)C2C3C=CC(CC3)C2C1=O (centres unmarked)	15.7
Cc1ccc(C)n1NC(=O)c1cccc(Cl)c1	12
CCN=C1SC(CC(=O)NC(C)C)C(=O)N1CC (centres unmarked)	-16.1
O=C(Nc1ccc(Br)cn1)c1ccc(Cl)s1	12.3
O=C1CCCC2=C1C(Cc1ccccc1)C1=C(CCCC1=O)O2	2.01
O=C(Cn1cnc2ccccc2c1=O)Nc1nnc(C2CC2)s1	12.1
COC(=O)c1ccc(COC(=O)c2ccc(N(C)C)cc2)cc1	1.63
COc1cc(NC(=O)C/C(C)=N/NC(=O)c2cccs2)c(OC)cc1Cl	5.06
CN(c1nc2c(c(=O)n(C)c(=O)n2C)n1CC(=O)c1ccccc1)C1CCCCC1	6.38
CCOC(=O)c1ccc(S(=O)(=O)NNC(=O)COc2ccccc2C)cc1	18
CCC[N+]12CCC(CC1)C(C(O)(c1ccccc1)c1ccccc1)C2.[Br-] (centres unmarked)	6.77
O=C(NCC1CCCO1)c1ccc(-c2ccccc2Cl)o1 (centres unmarked)	15.8
COc1ccccc1N1CCN(C(=S)Nc2ccc(F)cc2)CC1	15.7
CCCCNCc1cc2ccccc2o1.Cl	6.27
CC1=Nc2ccccc2/C1=C/c1c(O)n(C)c(=O)[nH]c1=O	10.9
O=C(Cn1cnc2c(nnn2Cc2ccc(F)cc2)c1=O)NCc1ccc2c(c1)OCO2	1.4
